# Assay results taken from the supplement of paper PMC8047034.
# Structures can show the parent of a compound that is named as a salt. The list shows a part of the results. Single values are uncertain, as repeats are few or missing.
# System: OVCAR4
# Assay: log2 surviving fraction (library drug vs vehicle, or drug + carboplatin vs carboplatin alone; relative to plate median); ovarian cancer lines: OVCAR4 is platinum-sensitive and Ov4Carbo platinum-resistant; higher = more cell survival
# Details: library drug concentration 10 µM; 7 days; carboplatin co-treatment 0 µM
row,Structure (SMILES),log2 surviving fraction
1,C=C(c1ccc(C(=O)O)cc1)c1cc2c(cc1C)C(C)(C)CCC2(C)C [Bexarotene],-0.741
2,CC(=O)O[C@]1(C(C)=O)CC[C@H]2[C@@H]3C=C(C)C4=CC(=O)CC[C@]4(C)[C@H]3CC[C@@]21C [Megestrol Acetate],-0.0758
3,CCC(C)n1ncn(-c2ccc(N3CCN(c4ccc(OCC5COC(Cn6cncn6)(c6ccc(Cl)cc6Cl)O5)cc4)CC3)cc2)c1=O (stereo not given) [Itraconazole (Sporanox)],0.629
4,CCOC(=O)c1ccc(N)cc1 [Benzocaine],0.314
5,O=c1oc2c(O)c(O)cc3c(=O)oc4c(O)c(O)cc1c4c23 [Ellagic acid],0.582
6,CS(=O)(=O)Nc1ccc([N+](=O)[O-])cc1Oc1ccccc1 [Nimesulide],-0.107
7,CCOC(=O)N1CCC(=C2c3ccc(Cl)cc3CCc3cccnc32)CC1 [Loratadine],-0.568
8,CC1(C)S[C@@H]2[C@H](NC(=O)[C@H](NC(=O)N3CCNC3=O)c3ccccc3)C(=O)N2[C@H]1C(=O)O [Azlocillin sodium salt],0.335
9,CNC1CCCN(c2c(F)cc3c(=O)c(C(=O)O)cn(C4CC4)c3c2OC)C1 (stereo not given) [Balofloxacin],1.64
10,CNCC[C@H](Oc1cccc2ccccc12)c1cccs1 [Duloxetine HCl (Cymbalta)],-2.84
11,CC(C)NCC(O)COc1cccc2[nH]ccc12 (stereo not given) [Pindolol],0.0173
12,Cc1noc(NS(=O)(=O)c2ccc(N)cc2)c1C [Sulfisoxazole],0.518
13,NCCS [Cysteamine HCl],1.19
14,C[C@@H]1C[C@H]2[C@@H]3CCC4=CC(=O)C=C[C@]4(C)[C@@]3(F)[C@@H](O)C[C@]2(C)[C@@]1(O)C(=O)CO [Dexamethasone],1.01
15,Nc1ncn([C@@H]2O[C@H](CO)[C@@H](O)[C@H]2O)c(=O)n1 [Azacitidine (Vidaza)],-5.74
16,CCCC(=O)[O-].[Na+] [Sodium butyrate],-0.0284
17,CC(=O)N1CCN(c2ccc(OCC3COC(Cn4ccnc4)(c4ccc(Cl)cc4Cl)O3)cc2)CC1 (stereo not given) [Ketoconazole],-0.506
18,Nc1nnc(-c2cccc(Cl)c2Cl)c(N)n1 [Lamotrigine],0.481

row,Structure (SMILES),log2 surviving fraction
1,NCCS(=O)(=O)O [Taurine],-0.255
2,CCCCCCNC(=O)n1cc(F)c(=O)[nH]c1=O [Carmofur],-4.09
3,CNS(=O)(=O)CCc1ccc2[nH]cc(C3CCN(C)CC3)c2c1 [Naratriptan HCl],0.63
4,COc1cc(/C=C/C(=O)CC(=O)/C=C/c2ccc(O)c(OC)c2)ccc1O [Curcumin],-3.65
5,COc1c(C)c2c(c(O)c1C/C=C(\C)CCC(=O)OCCN1CCOCC1)C(=O)OC2 [Mycophenolate mofetil (CellCept)],-4.53
6,CC1=C(/C=C/C(C)=C/C=C/C(C)=C/C=C/C=C(C)/C=C/C=C(C)/C=C/C2=C(C)CCCC2(C)C)C(C)(C)CCC1 [Beta Carotene],1.03
7,O=C[C@H](O)[C@@H](O)[C@H](O)CO [Xylose],-0.17
8,COc1cc(NS(=O)(=O)c2ccc(N)cc2)nc(OC)n1 [Sulphadimethoxine],0.551
9,NCCc1c[nH]cn1 [Histamine Phosphate],1.04
10,COc1ccccc1OCC(O)CN1CCN(CC(=O)Nc2c(C)cccc2C)CC1 (stereo not given) [Ranolazine dihydrochloride],-2.73
11,C[C@](N)(Cc1ccc(O)c(O)c1)C(=O)O [Methyldopa (Aldomet)],-4.33
12,c1ccc(C2CN3CCSC3=N2)cc1 (stereo not given) [Tetramisole HCl],0.406
13,CC1(C)O[C@@H]2C[C@H]3[C@@H]4CCC5=CC(=O)C=C[C@]5(C)[C@@]4(F)[C@@H](O)C[C@]3(C)[C@]2(C(=O)CO)O1 [Triamcinolone Acetonide],0.00804
14,C[C@]12C=CC(=O)C=C1CC[C@@H]1[C@@H]2[C@@H](O)C[C@@]2(C)[C@H]1CC[C@]2(O)C(=O)CO [Prednisolone (Hydroretrocortine)],0.492
15,NC(=O)c1cnccn1 [Pyrazinamide (Pyrazinoic acid amide)],-0.233
16,CN1C2=CC(=O)/C(=N\NC(N)=O)C=C2CC1S(=O)(=O)O (stereo not given) [Carbazochrome sodium sulfonate],0.802
17,[O-][n+]1ccccc1[S-].[O-][n+]1ccccc1[S-].[Zn+2] [Pyrithione zinc],-7.85
